Experimental findings from PubChem BioAssay AID1159614 (National Center for Advancing Translational Sciences (NCATS), 2016) are described below.

The campaign covered roughly 45,000 compounds. About 65 (0.1%) were called active. The call rests on the fitted dose curve; in most records, active means well fitted activation curve with a large enough effect; inconclusive means small, poorly fitted or top-dose-only effect; inactive means no such curve, though single readings can be large or run the other way. The list shows a part of the results.

Chain of UniProt P54803 (P54803 whole entry, looked up): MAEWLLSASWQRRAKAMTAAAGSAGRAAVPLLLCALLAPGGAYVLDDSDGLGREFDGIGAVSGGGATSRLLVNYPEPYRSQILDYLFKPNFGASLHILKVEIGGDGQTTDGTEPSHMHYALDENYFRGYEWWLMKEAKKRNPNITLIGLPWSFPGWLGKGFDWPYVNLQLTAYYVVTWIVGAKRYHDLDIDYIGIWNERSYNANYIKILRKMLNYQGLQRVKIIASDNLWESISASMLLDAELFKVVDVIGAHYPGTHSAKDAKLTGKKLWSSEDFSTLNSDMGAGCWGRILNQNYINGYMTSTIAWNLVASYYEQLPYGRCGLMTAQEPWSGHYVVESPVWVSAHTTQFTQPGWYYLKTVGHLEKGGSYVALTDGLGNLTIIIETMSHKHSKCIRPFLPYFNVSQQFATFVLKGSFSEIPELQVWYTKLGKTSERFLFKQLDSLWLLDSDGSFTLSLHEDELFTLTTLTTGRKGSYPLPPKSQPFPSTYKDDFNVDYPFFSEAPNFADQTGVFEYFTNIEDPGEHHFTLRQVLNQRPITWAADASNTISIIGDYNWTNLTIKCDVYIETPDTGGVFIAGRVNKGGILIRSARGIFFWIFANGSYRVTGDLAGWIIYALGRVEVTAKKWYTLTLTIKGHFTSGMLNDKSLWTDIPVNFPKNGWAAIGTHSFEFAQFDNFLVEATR

In this test the target is Galactocerebrosidase (Homo sapiens) (UniProt P54803). The test can be described thus: A Novel Cell-Based Assay to Identify Small Molecules for B -Galactocerebrosidase. Further: 0% is about no effect; nearly all actives have a fitted effect of over 65% in size. Particulars: 145M-Twi-hGALC-G270D cells, HMU-beta-Gal fluorescence, 48 h; series mostly up to 57.5 µM; activation: at the top concentration. The essentials:
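qHTS, 1536-well; 145M-Twi-hGALC-G270D cells (WT line also made) in DMEM/F12 + 10% FBS; compound incubation on live cells; HMU-β-gal 0.1 mM final, pH 5.2, NaTC; carbonate stop; fluorescence increase = enhanced residual activity.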
For `Cc1ccc2ccc3cc(C(=O)N4CCN(c5ccccc5)CC4)nc3c2[nH]1`, the “activation” value was inactive: -27.1%.

Turning to `Cc1cc(Cl)ccc1NC(=O)C1CCN(c2nnc(-n3c(C)ccc3C)s2)CC1`, the “activation” value was inactive: -13.4%.

As for `CCOC(=O)c1ccccc1NC(=O)N1CCOc2ccc(Cl)cc21`, the “activation” value was inactive: 9.25%.

With `COc1ccc(-c2cc(C(F)(F)F)n3nc(C(=O)NCC45CC6CC(CC(C6)C4)C5)cc3n2)cc1OC`, the “activation” value is inactive: -0.768%.

`Cc1cccc(Cn2c(C)c(CNC3CCCCC3)c(C(=O)O)c2C)c1`: the “activation” value is inactive: -2.91%.

For the molecule `CC1CCN(S(=O)(=O)c2ccc3c(c2)N(CC(=O)O)C(=O)CO3)CC1`, the “activation” value was inactive: -9.83%.

In the case of `CC1CCN(c2csc3ccc(F)cc3c2=O)CC1`, the “activation” value was inactive: -13.8%.

Turning to `CN(CCCNC(=O)Cn1ncc2c([nH]c3ccccc32)c1=O)Cc1ccccc1`, the “activation” value was inactive: 3.99%.

Take `Cc1ccccc1CNC(=O)C(=O)NCC(c1ccc2c(c1)OCO2)N1CCOCC1` (stereo not drawn): the “activation” value is inactive: -8.89%.

Take `Cc1ccccc1S(=O)(=O)Cc1ccc(C(=O)NCCc2ccccc2)o1`: the “activation” value is inactive: -4.86%.

`Cc1ccc2c(c1)-c1c(cnn1CC(=O)N1CCN(c3cc(C)ccc3C)CC1)CO2`: the “activation” value was inactive: -9.27%.

For `COCCc1nn2c(=O)cc(COC(=O)c3ccco3)nc2s1`, the “activation” value was inactive: -12.5%.

Regarding `CC(C)N1CCc2c(sc(NC(=O)c3ccc(S(=O)(=O)N(C)C4CCCCC4)cc3)c2C(N)=O)C1`, the “activation” value is inactive: -29.5%.

Consider `O=C(NCc1ccc(Cl)cc1)c1ccc(CNS(=O)(=O)c2ccc(F)cc2)cc1`, for which the “activation” value is inactive: -15.8%.

As for `CC(C)(C)c1ccc(C(=O)Nc2ccc(OCc3cc(=O)n4ccsc4n3)cc2)cc1`, the “activation” value is inactive: -12.4%.

Consider `COc1ccc(CCNC(=O)c2ccc(Cn3c(=O)c4ccccc4n(Cc4ccc(F)cc4Cl)c3=O)cc2)cc1OC`, for which the “activation” value was inactive: -12.6%.

As for `Cc1cc(N2CCN(c3ccccc3)CC2)n2cnnc2n1`, the “activation” value was inactive: -1.43%.

On to `CCC(Sc1nc2cc(OC)c(OC)cc2c(=O)n1Cc1ccc(OC)cc1)C(=O)NCCOC` (stereo not drawn), for which the “activation” value was inactive: -2.41%.

In the case of `CC(=O)c1ccc(NC(=O)c2cc(S(=O)(=O)N3CCOCC3)ccc2C)cc1`, the “activation” value is inactive: -8.98%.

Turning to `CC(C)Cc1nn2c(=O)cc(COC(=O)c3cccc(NS(C)(=O)=O)c3)nc2s1`, the “activation” value is inactive: -19.3%.

`Cc1nc(N2CCOCC2)c2c(C(=O)N(C)c3ccccc3)c(C)oc2n1`: the “activation” value is inactive: -18.3%.

As to `COc1ccccc1CNC(=O)C1CCN(C2=NS(=O)(=O)C(c3ccc(C)c(C)c3)=C2C)CC1`, the “activation” value was inactive: 11.4%.

Turning to `Cc1cc(C)cc(OCC(=O)N(Cc2ccc(Cl)cc2)C2CCS(=O)(=O)C2)c1` (stereo not drawn), the “activation” value was inactive: -35.6%.

For `Cc1nc(-c2ccc(F)cc2)sc1CCNC(=O)c1ccc(OC(C)C)cc1`, the “activation” value is inactive: -4.03%.

For the molecule `CCCN1CCN(CCCNC(=O)c2ccc3c(c2)sc2nc(-c4ccc(OCC)cc4)cn23)CC1`, the “activation” value is inactive: -8.4%.

In the case of `CCOc1ccc(-c2cn3c(n2)sc2cc(C(=O)N4CCCC(C)C4)ccc23)cc1` (stereo not drawn), the “activation” value is inactive: -5.27%.

Consider `CCN1CCN(C(=O)c2ccc3c(c2)N(Cc2ccccc2)C(=O)c2ccccc2S3(=O)=O)CC1`, for which the “activation” value is inactive: 8.17%.

Turning to `COc1ccc(CNC(=O)CCCN2C(=O)CCn3nc(-c4cn(C)c5ccccc45)cc32)cc1`, the “activation” value is inactive: 16.4%.

Consider `O=C(NCCC1=CCCCC1)C1CCN(C(=O)N2CCOc3ccccc32)CC1`, for which the “activation” value was inactive: -11.1%.

Take `COc1ccc(OC)c(NC(=O)Cn2ncc3c2-c2ccccc2OC3)c1`: the “activation” value was inactive: 29.3%.

For `Cc1ccc(-n2c(=O)c3cccnc3n2CC(=O)Nc2ccc(C)cc2Cl)cc1`, the “activation” value was inactive: -8.36%.

For `O=C(NCCc1ccc(Cl)cc1)C1(c2cccs2)CCOCC1`, the “activation” value is inactive: -3.74%.

`Cc1c(Cl)cccc1NC(=O)CSc1nc(=O)[nH]c2c1CCCC2`: the “activation” value was inactive: -7.17%.

On to `CCN(CC)CCn1c(=N)n(CCOc2ccccc2Cl)c2ccccc21`, for which the “activation” value was inactive: -23.3%.

On to `COc1ccc(C2=C(C)C(=O)N(Cc3ccc(C(=O)Nc4ccc(F)cc4C)cc3)S2(=O)=O)cc1`, for which the “activation” value is inactive: -3.45%.

For the molecule `O=C(NCCc1ccccc1)c1ccc(CSc2nc3cccnc3n2Cc2ccccc2F)cc1`, the “activation” value is inactive: -6.29%.

Consider `O=C1CN(C(=O)c2ccc(S(=O)(=O)N3CCCCC3)cc2)C(c2ccc(F)cc2)c2cc(Cl)ccc2N1` (stereo not drawn), for which the “activation” value was inactive: -11.9%.

On to `Cc1cccc(-c2nc(CS(=O)CC(=O)NCc3ccc(Cl)cc3)c(C)o2)c1` (stereo not drawn), for which the “activation” value is inactive: -15.8%.

Regarding `CCOC(=O)c1c(C)oc2nc(C)nc(NCC3CCN(Cc4ccccc4C)CC3)c12`, the “activation” value is inactive: -9.89%.

Turning to `Cc1ccc2nc(-c3cccc(NC(=O)c4cccc5c(Cl)cccc45)c3)oc2c1`, the “activation” value was inactive: -14.1%.

`O=C(NCC(c1cccnc1)N1CCOCC1)C(=O)Nc1ccc(Cl)cc1` (stereo not drawn): the “activation” value was inactive: -10.8%.

Regarding `COc1ccc(-c2[nH]ncc2C(=O)NCc2cccc(Cl)c2)cc1`, the “activation” value is inactive: 0.982%.

`COc1cccc(-c2cn3c(n2)sc2cc(C(=O)NCc4ccccc4F)ccc23)c1`: the “activation” value was inactive: -8.23%.

With `CCOC(=O)C(=O)CCc1ccccc1`, the “activation” value is inactive: -5.66%.

Regarding `CCOC(=O)c1cc(-c2ccccc2)n(CC(=O)NCc2ccc(C)cc2)c1C`, the “activation” value was inactive: -7.61%.

For `CC12CC3CC(C)(C1)CC(N)(C3)C2`, the “activation” value was inactive: -4.88%.

Take `COc1ccc(CCNC(=O)C(=O)Nc2ccc(C)c(C)c2)cc1`: the “activation” value is inactive: -14.2%.

As to `O=C(Nc1ccc(S(=O)(=O)N2CCOCC2)cc1)c1cc(Cl)ccc1NS(=O)(=O)c1ccc(Cl)s1`, the “activation” value was inactive: -11.8%.
